Assay results published in the supplement of paper PMC11876631.
± gives the standard deviation of the averaged measurements. Laboratory Escherichia coli strains with one amino-acid change in an essential protein, pooled on minimal glucose agar with carbenicillin or gentamicin at twice the control MIC (plus kanamycin and chloramphenicol for the plasmids), 48 h. Fold change of barcode share against drug-free plates; higher = less susceptible. Active = above 20 in both replicates (the paper's putatively resistant). '<' = one read or none on drug, '>' = one read or none on a drug-free plate. Shares are relative, so most strains fall below 1 when a few take over. Listed are strains with at least 15 reads on both drug-free plates, and hits; most hits rest on fewer reference reads. Replicate rank correlation about 0.5. Edits are read from barcodes.

B1: gmk L24Q (protein)
chain: MAQGTLYIVSAPSGAGKSSLIQAQLKTQPLYDTQVSVSHTTRQPRPGEVHGEHYFFVNHDEFKEMISRDAFLEHAEVFGNYYGTSREAIEQVLATGVDVFLDIDWQGAQQIRQKMPHARSIFILPPSKIELDRRLRGRGQDSEEVIAKRMAQAVAEMSHYAEYDYLIVNDDFDTALTDLKTIIRAERLRMSRQKQRHDALISKLLAD
B2: gmk L179A (protein)
chain: MAQGTLYIVSAPSGAGKSSLIQALLKTQPLYDTQVSVSHTTRQPRPGEVHGEHYFFVNHDEFKEMISRDAFLEHAEVFGNYYGTSREAIEQVLATGVDVFLDIDWQGAQQIRQKMPHARSIFILPPSKIELDRRLRGRGQDSEEVIAKRMAQAVAEMSHYAEYDYLIVNDDFDTALTDAKTIIRAERLRMSRQKQRHDALISKLLAD
B3: gmk L179W (protein)
chain: MAQGTLYIVSAPSGAGKSSLIQALLKTQPLYDTQVSVSHTTRQPRPGEVHGEHYFFVNHDEFKEMISRDAFLEHAEVFGNYYGTSREAIEQVLATGVDVFLDIDWQGAQQIRQKMPHARSIFILPPSKIELDRRLRGRGQDSEEVIAKRMAQAVAEMSHYAEYDYLIVNDDFDTALTDWKTIIRAERLRMSRQKQRHDALISKLLAD
B4: guaB M359A (protein)
chain: MLRIAKEALTFDDVLLVPAHSTVLPNTADLSTQLTKTIRLNIPMLSAAMDTVTEARLAIALAQEGGIGFIHKNMSIERQAEEVRRVKKHESGVVTDPQTVLPTTTLREVKELTERNGFAGYPVVTEENELVGIITGRDVRFVTDLNQPVSVYMTPKERLVTVREGEAREVVLAKMHEKRVEKALVVDDEFHLIGMITVKDFQKAERKPNACKDEQGRLRVGAAVGAGAGNEERVDALVAAGVDVLLIDSSHGHSEGVLQRIRETRAKYPDLQIIGGNVATAAGARALAEAGCSAVKVGIGPGSICTTRIVTGVGVPQITAVADAVEALEGTGIPVIADGGIRFSGDIAKAIAAGASAVAVGSMLAGTEESPGEIELYQGRSYKSYRGMGSLGAMSKGSSDRYFQSDNAADKLVPEGIEGRVAYKGRLKEIIHQQMGGLRSCMGLTGCGTIDELRTKAEFVRISGAGIQESHVHDVTITKESPNYRLGS
B5: guaB M359Q (protein)
chain: MLRIAKEALTFDDVLLVPAHSTVLPNTADLSTQLTKTIRLNIPMLSAAMDTVTEARLAIALAQEGGIGFIHKNMSIERQAEEVRRVKKHESGVVTDPQTVLPTTTLREVKELTERNGFAGYPVVTEENELVGIITGRDVRFVTDLNQPVSVYMTPKERLVTVREGEAREVVLAKMHEKRVEKALVVDDEFHLIGMITVKDFQKAERKPNACKDEQGRLRVGAAVGAGAGNEERVDALVAAGVDVLLIDSSHGHSEGVLQRIRETRAKYPDLQIIGGNVATAAGARALAEAGCSAVKVGIGPGSICTTRIVTGVGVPQITAVADAVEALEGTGIPVIADGGIRFSGDIAKAIAAGASAVQVGSMLAGTEESPGEIELYQGRSYKSYRGMGSLGAMSKGSSDRYFQSDNAADKLVPEGIEGRVAYKGRLKEIIHQQMGGLRSCMGLTGCGTIDELRTKAEFVRISGAGIQESHVHDVTITKESPNYRLGS
B6: groS L92A (protein)
chain: MNIRPLHDRVIVKRKEVETKSAGGIVLTGSAAAKSTRGEVLAVGNGRILENGEVKPLDVKVGDIVIFNDGYGVKSEKIDNEEVLIMSESDIAAIVEA
B7: groS L27Q (protein)
chain: MNIRPLHDRVIVKRKEVETKSAGGIVQTGSAAAKSTRGEVLAVGNGRILENGEVKPLDVKVGDIVIFNDGYGVKSEKIDNEEVLIMSESDILAIVEA
B8: groS L27W (protein)
chain: MNIRPLHDRVIVKRKEVETKSAGGIVWTGSAAAKSTRGEVLAVGNGRILENGEVKPLDVKVGDIVIFNDGYGVKSEKIDNEEVLIMSESDILAIVEA
B9: groS L27P (protein)
chain: MNIRPLHDRVIVKRKEVETKSAGGIVPTGSAAAKSTRGEVLAVGNGRILENGEVKPLDVKVGDIVIFNDGYGVKSEKIDNEEVLIMSESDILAIVEA
B10: groS V26Q (protein)
chain: MNIRPLHDRVIVKRKEVETKSAGGIQLTGSAAAKSTRGEVLAVGNGRILENGEVKPLDVKVGDIVIFNDGYGVKSEKIDNEEVLIMSESDILAIVEA
B11: groS L27D (protein)
chain: MNIRPLHDRVIVKRKEVETKSAGGIVDTGSAAAKSTRGEVLAVGNGRILENGEVKPLDVKVGDIVIFNDGYGVKSEKIDNEEVLIMSESDILAIVEA
B12: groS V26W (protein)
chain: MNIRPLHDRVIVKRKEVETKSAGGIWLTGSAAAKSTRGEVLAVGNGRILENGEVKPLDVKVGDIVIFNDGYGVKSEKIDNEEVLIMSESDILAIVEA
B13: groS L41D (protein)
chain: MNIRPLHDRVIVKRKEVETKSAGGIVLTGSAAAKSTRGEVDAVGNGRILENGEVKPLDVKVGDIVIFNDGYGVKSEKIDNEEVLIMSESDILAIVEA
B14: groS L27A (protein)
chain: MNIRPLHDRVIVKRKEVETKSAGGIVATGSAAAKSTRGEVLAVGNGRILENGEVKPLDVKVGDIVIFNDGYGVKSEKIDNEEVLIMSESDILAIVEA
B15: groS L92D (protein)
chain: MNIRPLHDRVIVKRKEVETKSAGGIVLTGSAAAKSTRGEVLAVGNGRILENGEVKPLDVKVGDIVIFNDGYGVKSEKIDNEEVLIMSESDIDAIVEA
B16: groS V26A (protein)
chain: MNIRPLHDRVIVKRKEVETKSAGGIALTGSAAAKSTRGEVLAVGNGRILENGEVKPLDVKVGDIVIFNDGYGVKSEKIDNEEVLIMSESDILAIVEA
B17: groS V26P (protein)
chain: MNIRPLHDRVIVKRKEVETKSAGGIPLTGSAAAKSTRGEVLAVGNGRILENGEVKPLDVKVGDIVIFNDGYGVKSEKIDNEEVLIMSESDILAIVEA
B18: groS L41A (protein)
chain: MNIRPLHDRVIVKRKEVETKSAGGIVLTGSAAAKSTRGEVAAVGNGRILENGEVKPLDVKVGDIVIFNDGYGVKSEKIDNEEVLIMSESDILAIVEA
B19: groS V26D (protein)
chain: MNIRPLHDRVIVKRKEVETKSAGGIDLTGSAAAKSTRGEVLAVGNGRILENGEVKPLDVKVGDIVIFNDGYGVKSEKIDNEEVLIMSESDILAIVEA
B20: argG L114A (protein)
chain: MTTILKHLPVGQRIGIAFSGGLDTSAALLWMRQKGAVPYAYTANLGQPDEEDYDAIPRRAMEYGAENARLIDCRKQLVAEGIAAIQCGAFHNTTGGLTYFNTTPLGRAVTGTMAVAAMKEDGVNIWGDGSTYKGNDIERFYRYGLLTNAELQIYKPWLDTDFIDELGGRHEMSEFMIACGFDYKMSVEKAYSTDSNMLGATHEAKDLEYLNSSVKIVNPIMGVKFWDESVKIPAEEVTVRFEQGHPVALNGKTFSDDVEMMLEANRIGGRHGLGMSDQIENRIIEAKSRGIYEAPGMALLHIAYERLLTGIHNEDTIEQYHAHGRQLGRLLYQGRWFDSQALMLRDSLQRWVASQITGEVTLELRRGNDYSILNTVSENLTYKPERLTMEKGDSVFSPDDRIGQLTMRNLDITDTREKLFGYAKTGLLSSSAASGVPQVENLENKGQ
B21: argG L114W (protein)
chain: MTTILKHLPVGQRIGIAFSGGLDTSAALLWMRQKGAVPYAYTANLGQPDEEDYDAIPRRAMEYGAENARLIDCRKQLVAEGIAAIQCGAFHNTTGGLTYFNTTPLGRAVTGTMWVAAMKEDGVNIWGDGSTYKGNDIERFYRYGLLTNAELQIYKPWLDTDFIDELGGRHEMSEFMIACGFDYKMSVEKAYSTDSNMLGATHEAKDLEYLNSSVKIVNPIMGVKFWDESVKIPAEEVTVRFEQGHPVALNGKTFSDDVEMMLEANRIGGRHGLGMSDQIENRIIEAKSRGIYEAPGMALLHIAYERLLTGIHNEDTIEQYHAHGRQLGRLLYQGRWFDSQALMLRDSLQRWVASQITGEVTLELRRGNDYSILNTVSENLTYKPERLTMEKGDSVFSPDDRIGQLTMRNLDITDTREKLFGYAKTGLLSSSAASGVPQVENLENKGQ

Each protein was assayed against Escherichia coli (laboratory strain) (assay: barcode share on antibiotic plates over drug-free plates; higher = less susceptible). Conditions: antibiotic: carbenicillin; 2× MIC (3.1 µg/mL).
Experimental: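 A pool of E. coli strains, each edited to carry one amino-acid change in an essential protein, was grown for 48 h on minimal glucose agar with or without antibiotic; strain barcodes were sequenced; mean of two replicates.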
B1 was tested, and the “fold change of barcode share” value was 0.366 ± 0.039. In the case of B2, the “fold change of barcode share” value is reported as 0.417 ± 0.3. B3 was tested, and the “fold change of barcode share” value was 0.23 ± 0.018. With B4 the “fold change of barcode share” value was 0.313 ± 0.046. With B5 the “fold change of barcode share” value was 0.379 ± 0.02. In the case of B6, the “fold change of barcode share” value is reported as 0.29 ± 0.1. In the case of B7, the “fold change of barcode share” value is reported as 0.334 ± 0.12. B8 was tested, and the “fold change of barcode share” value was 0.219 ± 0.082. B9 was tested, and the “fold change of barcode share” value was 0.396 ± 0.053. In the case of B10, the “fold change of barcode share” value is reported as 0.46 ± 0.31. For B11, the “fold change of barcode share” value was 0.313 ± 0.16. With B12 the “fold change of barcode share” value was 0.391 ± 0.17. For B13, the “fold change of barcode share” value was 0.43 ± 0.13. With B14 the “fold change of barcode share” value was 0.403 ± 0.13. For B15, the “fold change of barcode share” value was 0.231 ± 0.12. In the case of B16, the “fold change of barcode share” value is reported as 0.264 ± 0.0078. With B17 the “fold change of barcode share” value was 0.0622 ± 0.039. B18 was tested, and the “fold change of barcode share” value was 0.381 ± 0.055. B19 was tested, and the “fold change of barcode share” value was 0.244 ± 0.047. For B20, the “fold change of barcode share” value was 0.212 ± 0.022. With B21 the “fold change of barcode share” value was 0.709 ± 0.067.

Same assay, conditions: antibiotic: gentamicin; 2× MIC (MIC 0.45 µg/mL)
B2 was tested, and the “fold change of barcode share” value was < 0.0123. B3 was tested, and the “fold change of barcode share” value was < 0.00687. B4 was tested, and the “fold change of barcode share” value was < 0.00486. B5 was tested, and the “fold change of barcode share” value was 0.00841 ± 0.0031. In the case of B6, the “fold change of barcode share” value is reported as < 0.00589. For B7, the “fold change of barcode share” value was < 0.00303. In the case of B8, the “fold change of barcode share” value is reported as 0.00689 ± 0.0065. In the case of B9, the “fold change of barcode share” value is reported as < 0.00427. For B10, the “fold change of barcode share” value was 0.00749 ± 0.0031. In the case of B11, the “fold change of barcode share” value is reported as < 0.0122. With B12 the “fold change of barcode share” value was 0.00946 ± 0.0047. For B13, the “fold change of barcode share” value was 0.0964 ± 0.02. With B14 the “fold change of barcode share” value was < 0.0067. With B15 the “fold change of barcode share” value was 0.00916 ± 0.0052. With B16 the “fold change of barcode share” value was 0.0167 ± 0.018. B18 was tested, and the “fold change of barcode share” value was 0.00861 ± 0.00092. With B19 the “fold change of barcode share” value was 0.0425 ± 0.054. B20 was tested, and the “fold change of barcode share” value was 0.00401 ± 0.0037. B21 was tested, and the “fold change of barcode share” value was 0.289 ± 0.34.
